Experimental data as given in the supplement of paper PMC4967469.

Key:
Assay in all cases: Viability of human cancer cell lines after 72 h of drug (GDSC screen)
OSI-027 = compound: COc1cccc2cc(-c3nc([C@H]4CC[C@H](C(=O)O)CC4)n4ncnc(N)c34)[nH]c12 [OSI-027]; conditions: top dose 20 µM
Description: (§1)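 Human cancer cell lines in 384-well plates, medium with 10% serum, drug for 72 h over a 256-fold dose range (nine 2-fold or five 4-fold steps up to the top dose). Adherent lines were fixed and stained with the nucleic acid dye Syto60, suspension lines read with resazurin; signal relative to control wells, capped at 0 and 100%. One two-parameter sigmoid per drug and line, fitted in a mixed model over all curves with the slope shared within a line.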

BIX02189 = compound: CN(C)Cc1cccc(N=C(c2ccccc2)c2c(O)[nH]c3cc(C(=O)N(C)C)ccc23)c1 [BIX02189]; conditions: top dose 20 µM; top dose inferred
Description: as §1

BMX-IN-1 (QL-XII-61) = compound: C=CC(=O)Nc1cc(-n2c(=O)ccc3cnc4ccc(-c5ccc(NS(C)(=O)=O)cc5)cc4c32)ccc1C [BMX-IN-1 (QL-XII-61)]; conditions: top dose 10 µM; top dose inferred
Description: as §1

UNC1215 = compound: O=C(c1ccc(C(=O)N2CCC(N3CCCC3)CC2)c(Nc2ccccc2)c1)N1CCC(N2CCCC2)CC1 [UNC1215]; conditions: top dose 1 µM; top dose inferred
Description: as §1

VX-11e = compound: Cc1cnc(Nc2ccc(F)cc2Cl)nc1-c1c[nH]c(C(=O)N[C@H](CO)c2cccc(Cl)c2)c1 [VX-11e]; conditions: top dose 5.12 µM; top dose inferred
Description: as §1

Dimethyloxalylglycine = compound: COC(=O)CNC(=O)C(=O)OC [Dimethyloxalylglycine]; conditions: top dose 4000 µM; top dose inferred
Description: as §1

TG101348 = compound: Cc1cnc(Nc2ccc(OCCN3CCCC3)cc2)nc1Nc1cccc(S(=O)(=O)NC(C)(C)C)c1 [TG101348]; conditions: top dose 10.24 µM
Description: as §1

Doxorubicin = compound: COc1cccc2c1C(=O)c1c(O)c3c(c(O)c1C2=O)C[C@@](O)(C(=O)CO)C[C@@H]3O[C@H]1C[C@H](N)[C@H](O)[C@H](C)O1 [Doxorubicin]; conditions: top dose 1.024 µM
Description: as §1

CCT018159 = compound: CCc1cc(-c2n[nH]c(C)c2-c2ccc3c(c2)OCCO3)c(O)cc1O [CCT018159]; conditions: top dose 10 µM; top dose inferred
Description: as §1

17-AAG = compound: C=CCNC1=C2C[C@@H](C)C[C@H](OC)[C@H](O)[C@@H](C)/C=C(\C)[C@H](OC(N)=O)[C@@H](OC)/C=C\C=C(/C)C(=O)NC(=CC1=O)C2=O [17-AAG]; conditions: top dose 1 µM
Description: as §1

Vismodegib = compound: CS(=O)(=O)c1ccc(C(=O)Nc2ccc(Cl)c(-c3ccccn3)c2)c(Cl)c1 [Vismodegib]; conditions: top dose 10 µM; top dose inferred
Description: as §1

Row | Cell Line | AUC (OSI-027) | IC50 (OSI-027) [µM] | AUC (BIX02189) | IC50 (BIX02189) [µM] | AUC (BMX-IN-1 (QL-XII-61)) | IC50 (BMX-IN-1 (QL-XII-61)) [µM] | AUC (UNC1215) | IC50 (UNC1215) [µM] | AUC (VX-11e) | IC50 (VX-11e) [µM] | AUC (Dimethyloxalylglycine) | IC50 (Dimethyloxalylglycine) [µM] | AUC (TG101348) | IC50 (TG101348) [µM] | AUC (Doxorubicin) | IC50 (Doxorubicin) [µM] | AUC (CCT018159) | IC50 (CCT018159) [µM] | AUC (17-AAG) | IC50 (17-AAG) [µM] | AUC (Vismodegib) | IC50 (Vismodegib) [µM]
1 | Hs940-T (melanoma, adherent) | 0.621 | 2.9 | 0.983 | > 20 | 0.974 | > 10 | 0.981 | > 1 | 0.984 | > 5.12 | 0.327 | 73.7 | 0.607 | 1.34 | 0.547 | 0.0884 | – | – | – | – | – | –
2 | OV-90 (ovary, adherent) | 0.617 | 2.88 | 0.978 | > 20 | 0.974 | > 10 | 0.975 | > 1 | 0.909 | > 5.12 | 0.659 | 785 | 0.906 | > 10.2 | – | – | 0.977 | > 10 | 0.377 | 0.0259 | 0.978 | > 10
3 | TE-1 (oesophagus, adherent) | 0.866 | > 20 | 0.982 | > 20 | 0.922 | > 10 | 0.97 | > 1 | 0.981 | > 5.12 | 0.631 | 633 | 0.904 | > 10.2 | – | – | 0.849 | > 10 | 0.586 | 0.115 | 0.972 | > 10
4 | NCI-H630 (large intestine, adherent) | 0.871 | > 20 | 0.962 | > 20 | 0.976 | > 10 | 0.986 | > 1 | 0.877 | > 5.12 | 0.808 | 2260 | 0.942 | > 10.2 | – | – | 0.979 | > 10 | 0.951 | > 1 | 0.974 | > 10
5 | SK-MEL-2 (melanoma, adherent) | 0.508 | 1.31 | 0.987 | > 20 | 0.87 | 9.94 | 0.986 | > 1 | 0.987 | > 5.12 | 0.797 | – | 0.875 | > 10.2 | – | – | 0.906 | > 10 | 0.594 | 0.115 | 0.981 | > 10
6 | EVSA-T (breast, adherent) | 0.7 | 4.13 | 0.96 | > 20 | 0.882 | 7.98 | 0.991 | > 1 | 0.955 | > 5.12 | 0.847 | 2330 | 0.897 | 9.54 | – | – | 0.916 | > 10 | 0.436 | 0.0429 | 0.991 | > 10
7 | SW1573 (lung adenocarcinoma, adherent) | 0.853 | > 20 | 0.974 | > 20 | 0.937 | > 10 | 0.977 | > 1 | 0.981 | > 5.12 | 0.723 | 1360 | 0.908 | > 10.2 | – | – | 0.939 | > 10 | 0.685 | 0.249 | 0.961 | > 10
8 | SF268 (glioma, adherent) | 0.502 | 1.27 | 0.929 | > 20 | 0.97 | > 10 | 0.978 | > 1 | 0.936 | > 5.12 | 0.566 | 383 | 0.82 | 6.45 | – | – | 0.868 | > 10 | 0.773 | 0.42 | 0.982 | > 10
9 | SKN (uterus, adherent) | 0.713 | 5.77 | 0.939 | > 20 | 0.944 | > 10 | 0.971 | > 1 | 0.982 | > 5.12 | 0.516 | 278 | 0.793 | 5.79 | – | – | 0.878 | > 10 | 0.354 | 0.0225 | 0.981 | > 10
10 | SJSA-1 (bone, adherent) | 0.479 | 1.09 | 0.956 | > 20 | 0.978 | > 10 | 0.982 | > 1 | 0.94 | > 5.12 | 0.516 | – | 0.738 | 3.39 | – | – | 0.869 | > 10 | 0.7 | 0.248 | 0.984 | > 10
11 | NAMALWA (Burkitt lymphoma, suspension) | 0.225 | 0.233 | 0.917 | > 20 | 0.963 | > 10 | 0.991 | > 1 | 0.899 | 4.67 | 0.637 | 559 | 0.727 | 2.49 | – | – | 0.941 | > 10 | 0.965 | > 1 | 0.957 | > 10
12 | SK-LMS-1 (soft tissue, adherent) | 0.268 | 0.285 | 0.948 | > 20 | 0.964 | > 10 | 0.986 | > 1 | 0.897 | > 5.12 | 0.406 | 140 | 0.902 | > 10.2 | – | – | 0.845 | 6.72 | 0.839 | 0.634 | 0.98 | > 10
13 | LS-180 (large intestine, adherent) | 0.761 | 8.06 | 0.963 | > 20 | 0.983 | > 10 | 0.983 | > 1 | 0.894 | > 5.12 | 0.605 | 507 | 0.931 | > 10.2 | – | – | 0.948 | > 10 | 0.446 | 0.0436 | 0.982 | > 10

A lower IC50 marks a more sensitive line; where the fit passes the top or lowest dose, that dose stands as a limit. AUC is the area under the same curve over the 256-fold range up to the top dose, as a fraction; it is 1 without any effect and falls as sensitivity rises. For some assays here: A top dose marked as inferred is not printed in the source and was worked back from the curve model.
